# According to article PMC12136788:
# The list shows a part of the results.
# T1: UNK ZnF1-3 (human, UniProt Q9C0B0 31-174)
# T1 sequence: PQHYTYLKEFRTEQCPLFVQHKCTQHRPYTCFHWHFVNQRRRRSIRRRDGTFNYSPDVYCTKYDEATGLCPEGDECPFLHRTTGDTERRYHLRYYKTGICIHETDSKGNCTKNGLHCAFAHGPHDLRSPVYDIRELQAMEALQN
# B1: chrX:34421674:34421675:+_ENSMUSG00000016308_ENSMUST00000016452|mus_mus|FALSE|FALSE (ssRNA)
# RNA: GGGAGUUCUACAGUCCGACGAUCGAACAUCUUAGAGACAAAUCUAACAGUAGGUGGCUUAUUAGGAUACUCUUCAGUGAAUUCAAUUGUAAGCUUAAAUGUUCCAUCCUCAAACGGGGUCCCUUCGGGCCCAAAAAUGACCGCCAACAGAGGAUUGAGCAUCA
# B2: chr10:106027121:106027122:+_ENSG00000148834_ENST00000369713|hu_mus|FALSE|FALSE (ssRNA)
# RNA: GGGAGUUCUACAGUCCGACGAUCGGCCUCGGGGCUGUCCUGUAGGUAGAGAUUUAAGUACUCGCGGUAGGUCUUGGCAUCAAUUUUGUGAGAGGAUGCCACAGGGUCUUGCUGCAUGGCCGCCAUCCAGAGCUUGAGCUUGGGCAACAGAGGAUUGAGCAUCA
# B3: 76008110_76027685_211_3pUTR_ENSG00000078687_ENST00000588847|human|control|control (ssRNA)
# RNA: GGGAGUUCUACAGUCCGACGAUCGUUGCUGCUUGAGAUAGUGCUGGUGGAAGUACUGGUACUGGUACCGGCAGGUUGGGGCUGGCUUGAACAGGUCUUAGUAGGUUCUGGCACUGUAGCGAUGAGUCUUUCUGCCCAACUCUACAACAGAGGAUUGAGCAUCA
# B4: 103941475_103946771_1592_CDS_ENSG00000075413_ENST00000216288|human|control|control (ssRNA)
# RNA: GGGAGUUCUACAGUCCGACGAUCGCAAACAUAAGUAUUUCGUCGUGUCAUUCCACCAGAUGCUGUGUUACUACUAGGGACAGUGGAGCUUUUCUUGCGUUCAGGAAUAUCCGCCUUAUUAGGAUUACUUGCAUUCCCAAGCAUCAACAGAGGAUUGAGCAUCA
# B5: chr1:163117127:163117128:-_ENSG00000143248_ENST00000313961|hu_mus|hu_hu_hu_mus_False|38_68 (ssRNA)
# RNA: GGGAGUUCUACAGUCCGACGAUCUGCUACAAAGGAUGUAACUCAACUCACAGGGCAACUUUUGGAAGCCUGGCUAAAUGACUACUUGAUUAGCUCCUGAUAAAACUCAGAGCGCACAAAGCGGGGCAGAGAAUCCUUCUCCAUCAACAGAGGAUUGAGCAUCA
# B6: chrX:20248820:20248821:+_ENSMUSG00000001924_ENSMUST00000001989|mus_mus|mus_mus_mus_hu_True|68_68 (ssRNA)
# RNA: GGGAGUUCUACAGUCCGACGAUCGGCGAAGUCCGUCACCACAAAGUCAGGUUCUGCCAGUGAGGCCGGCAAGGAUUUAAAGCUAAUCUUCUUAGGUACUUUGACCUGACUGACGAUGCCUCCACGGAUGUAGUCGGAGAAGUUCAACAGAGGAUUGAGCAUCA
# B7: 49445440_49445560_1965_CDS_ENSG00000167548_ENST00000301067|human|control|control (ssRNA)
# RNA: GGGAGUUCUACAGUCCGACGAUCAGGCGGUGGGGACAAGGGAGAUUCCUCAGGCGGUGGAGACAGGCGUGACACCACAGGCAGGGGGGAUAGGCGCGAUACCUCAGGUGGGGGGGACAUAGGUGAUUCUUCAGGUGGUGGGGACAACAGAGGAUUGAGCAUCA
# B8: chr15:80044675:80044676:+_ENSMUSG00000042428_ENSMUST00000044970|mus_mus|FALSE|FALSE (ssRNA)
# RNA: GGGAGUUCUACAGUCCGACGAUCCCUACGCCCACACAUGAGUAUCAUCUUUGUACAGGGACACAUGGAUACAGACAUGUACAAUACACACCAAGCAUGCACCCAUGCCCAUAAAUAUACAUACACGCACAAACACGGACCAUUCAACAGAGGAUUGAGCAUCA
# B9: chr5:21408736:21408737:-_ENSMUSG00000042453_ENSMUST00000161356|mus_hu|mus_mus_mus_hu_False|8_48 (ssRNA)
# RNA: GGGAGUUCUACAGUCCGACGAUCGUUGACAGAGUUGUAGAUGGUGGCUUCAUGGAACUGGAAAGGGGAGCAGCCAAUGCUGUUAGAAGAGGAAGGUAGGCACUGGGUCUGUACGAGCUGCCAGGAAUCGGACCUUGCAUCCUUCAACAGAGGAUUGAGCAUCA
# B10: chr4:123032474:123032475:-_ENSMUSG00000028649_ENSMUST00000154824|mus_hu|motif|central (ssRNA)
# RNA: GGGAGUUCUACAGUCCGACGAUCGUGAGCGGAAGGGGGUCAUUCCCUGGGAUGCUCCCUCUGGUAGGAUGAAUUUCUCUCGGAGUUCAAUGUUAGUUCUACCUCGUGCUCGGCAGGGAUCAUUUUUCACUAAAAAUUCAUCCACAACAGAGGAUUGAGCAUCA
# B11: chr19:8913615:8913616:-_ENSMUSG00000071658_ENSMUST00000096259|mus_hu|mus_mus_mus_hu_False|8_108 (ssRNA)
# RNA: GGGAGUUCUACAGUCCGACGAUCAGGGGGGCACCAACUUCUGCCUGAAAUGGGUGCCCCACCCAGUAGGGAGUUGCAGCUGAAAGUAUCUGAUGCAGAAGCAGUGACUAUACGAAAGGAGGCCCCUGAUGCUCAGAAGGCCAGCAACAGAGGAUUGAGCAUCA
# B12: chr3:179287964:179287965:+_ENSG00000136518_ENST00000429709|hu_hu|hu_hu_hu_mus_True|8_68 (ssRNA)
# RNA: GGGAGUUCUACAGUCCGACGAUCCUUGAGUGGUGAGAUGGCCUCCAUGUUCUCCCUGGGCACGCGGAGAGCAUUAGUGUCUAUGUAGUAGGUGGGCCCGCCCUGCUUGCCUUUGUCACCAUCAAUCUCCAUUAAUGUACUUCCCAACAGAGGAUUGAGCAUCA
# B13: 53688312_53692579_301_CDS_ENSMUSG00000024974_ENSMUST00000025930|mouse|control|control (ssRNA)
# RNA: GGGAGUUCUACAGUCCGACGAUCAACACGAGGACCUGUACCCUCAUGCAACAAAGCCAAUCGCUGCUCUGGACGAAGAUGGCUGAAUUCAUCACUGAGAACAAACUGGAUUGCAUAAAAGAAGUUGCUUUUUCCAGAGCCAUUCAACAGAGGAUUGAGCAUCA
# B14: chr5:128440902:128440903:+_ENSG00000066583_ENST00000173527|hu_mus|hu_hu_hu_mus_True|8_78 (ssRNA)
# RNA: GGGAGUUCUACAGUCCGACGAUCUUGAACGGUGCUGCCAAGUCCUUUGGGGUAUUGUUCUGUUACAAUAACUGGAAUCCCUAAGAUCCGAGCUCCUUGCAACAGUCUCUGUCCCACACUAAUGAUGUCCCCAAAAUAUUUGAUCAACAGAGGAUUGAGCAUCA
# B15: chr4:141323876:141323877:-_ENSMUSG00000040697_ENSMUST00000038014|mus_hu|FALSE|FALSE (ssRNA)
# RNA: GGGAGUUCUACAGUCCGACGAUCGGUCAGGUCAGGAAGCACUGCUUCAGAGGACAGAAGAGCUGGAUCUUUACGCAGCUGGUCGAGAUAGCCCAAGAGGAUAAAUUUGUCACUCUCACUCCCAAUCCAAGGGUCUUCCAGGGUCAACAGAGGAUUGAGCAUCA
# B16: chr7:82072735:82072736:-_ENSG00000153956_ENST00000356860|hu_mus|FALSE|FALSE (ssRNA)
# RNA: GGGAGUUCUACAGUCCGACGAUCAGUGACGGGCGAAGGGAAGGGCUCCUCGCUCGAGGGGCCGAUCAGCCCAGAUUGGAAAAGUGUCAGAGUCAAGGCCAGCAGGCAGCCAGCAGCCAUCUUCGCGAUCGAAGAUCAGUGCCCCAACAGAGGAUUGAGCAUCA
# B17: 36867670_36873164_168_5pUTR_ENSMUSG00000029192_ENSMUST00000171385|mouse|control|control (ssRNA)
# RNA: GGGAGUUCUACAGUCCGACGAUCCGGUCUUCCAGCCUUGUCUUCAUAUUCCAUGAACGCCAGGCCUCAGAGGCGCGUGGCCGGCGGCUCCAUGCCCAGUGAGUGGAGGCCAGCCUCGCUCCUGCCUCUGGACCACGGAUCUACCAACAGAGGAUUGAGCAUCA
# B18: chr5:145543945:145543946:-_ENSG00000133706_ENST00000545646|hu_hu|hu_hu_hu_mus_True|48_98 (ssRNA)
# RNA: GGGAGUUCUACAGUCCGACGAUCCUGAACGGCCAGUGGCGGGAAAUAAUCAAGCCAGUGCUCUGCUUCAGAAAACUUCACUAUGUCUUCAUCAGACAGCCCAAGGGAUUUCAUAAUGUCCCACUGGUACUUAGAAGAUCCUGCCAACAGAGGAUUGAGCAUCA
# B19: chr12:493273:493274:-_ENSG00000073614_ENST00000399788|hu_mus|hu_hu_hu_mus_False|28_28 (ssRNA)
# RNA: GGGAGUUCUACAGUCCGACGAUCUUUUCUCUCCACCACAGGGAUCUUCAAUGUAGAUCCUUGAAGUUCCCAAAAUUUUGCCAGUUGAUCCAAGAAGUCCAAUCUUACUCUGGUCAUUGCCUCAAGUUCAUUCAGGCGCUGGACCAACAGAGGAUUGAGCAUCA
# B20: chr12:25362807:25362808:-_ENSG00000133703_ENST00000311936|hu_mus|motif|central (ssRNA)
# RNA: GGGAGUUCUACAGUCCGACGAUCCUUCUUCUUCUUCCCAUCUUUGCUCAUCUUUUCUUUAUGUUUUCGAAUUUCUCGGACGGAUGUAUAGAAGGCAUCGUCAACACCCUGUCUUGUCUUUGCUGAGGUCUCAAUGAACGGAAUCAACAGAGGAUUGAGCAUCA
# B21: chr4:144460044:144460045:+_ENSG00000153147_ENST00000283131|hu_mus|hu_hu_hu_mus_False|18_58 (ssRNA)
# RNA: GGGAGUUCUACAGUCCGACGAUCACGGUCCAUAGCCUGAAGAUCAACUUGCGGAUUCCAAUCUGAGUCAUAUAAAAUUACUACAUCAGCAGUUGCAAGAUUGAUGCCCAGACCACCAGCACGCGUGCUUAGCAUAAAUACAAACAACAGAGGAUUGAGCAUCA
# B22: chr14:66974463:66974464:+_ENSMUSG00000022044_ENSMUST00000074523|mus_hu|mus_mus_mus_hu_False|8_8 (ssRNA)
# RNA: GGGAGUUCUACAGUCCGACGAUCUUGUAGGACGACUUAUUCAGGGGAUCGGCCAGGAAGCAGGAGCAGAACAAGGACACCAGCGGGAGCUCCUUCAUCUUCUCUUUGUAGGCAGCAAGGGUCAUGUUGGCUGGAAUUGGUGGCCAACAGAGGAUUGAGCAUCA
# Biological target: T1, UNK ZnF1-3
# Experiment: nsRBNS (natural sequence RNA bind-n-seq); RBNS binding buffer (assumed for nsRBNS): 25 mM Tris pH 7.5, 150 mM KCl, 3 mM MgCl2, 0.01% Triton X-100, 500 ug/ml BSA, 20 U/ml SUPERase-In, 4 C; UNK is unkempt and MSI1 is Musashi-1; names of the RNAs are library labels; protein concentration not given here; high values mean tight binding
row,Binder,binding signal
1,B1,1.02 enrichment R
2,B2,2.08 enrichment R
3,B3,0.681 enrichment R
4,B4,0.84 enrichment R
5,B5,1.03 enrichment R
6,B6,0.878 enrichment R
7,B7,1.96 enrichment R
8,B8,1.03 enrichment R
9,B9,1.53 enrichment R
10,B10,0.788 enrichment R
11,B11,0.412 enrichment R
12,B12,0.639 enrichment R
13,B13,1.11 enrichment R
14,B14,0.668 enrichment R
15,B15,1.68 enrichment R
16,B16,1.21 enrichment R
17,B17,0.317 enrichment R
18,B18,1.1 enrichment R
19,B19,0.979 enrichment R
20,B20,0.479 enrichment R
21,B21,1.46 enrichment R
22,B22,2.3 enrichment R
